# Laboratory results: PubChem BioAssay AID1508642 (National Center for Advancing Translational Sciences (NCATS), 2021)
# About 200 (0.47%) of roughly 43,000 compounds were called active. Inconclusive results, whose numbers are uncertain, are shown with a selection of clear calls. The call rests on the fitted dose curve; in most records, active means well fitted cell-killing curve with a large enough effect; inconclusive means small, poorly fitted or top-dose-only effect, or effect the other way; inactive means flat fitted curve, though single readings scatter. Where the call is inconclusive, the potency comes from a doubtful curve fit.
# Experiment: Cell viability qHTS assay in S16 Pmp22-F2sN cells; further: nearly all actives have a fitted effect of over 65% in size
# Settings: S16 Pmp22-F2sN Schwann cells viability, CellTiter-Glo, 24 h; activity change, negative = cytotoxicity: at 57.5 µM (top of the series)
# Outline: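 Used to flag compounds lowering reporter output through toxicity, this quantitative HTS measures ATP-based CellTiter-Glo luminescence in S16 Pmp22-F2sN Schwann cells after 24 h compound exposure at 37C.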
# On the % scale 0 is the no-effect control and ±100 the full control effect; potency means the concentration at half of the fitted maximal effect; tags describe the fitted curve by direction and shape.
SMILES,Potency,"activity change, negative = cytotoxicity"
COc1ccc(Cl)cc1NC(=O)CSC1=Nc2ccccc2C2=NC(CCC(=O)NCc3ccco3)C(=O)N12 (configuration not stated),"inconclusive: 22.4 µM [cytotoxic, single point]",–
Cc1ccc(Cn2c(CCNC(=O)c3cccc(C)c3)nc3ccccc32)cc1,inactive,–
CC(C)Cn1cc(NC(=O)NCc2cccc(Cl)c2)c2ccccc2c1=O,"inconclusive: 39.8 µM [cytotoxic, partial curve, poor fit]",–
O=C(NCCc1ccccc1)c1ccc2c(c1)N(Cc1ccc(F)cc1)C(=O)CS2,"inconclusive: 39.8 µM [cytotoxic, single point]",–
CCCN(CCC)CCCNC(=O)c1cc2c(=O)n(C)c3ccccc3c2s1,"inconclusive: 39.8 µM [cytotoxic, single point]",–
COc1ccc(C(Nc2ccccn2)c2ccc3ccc(C)nc3c2O)cc1C (configuration not stated),"inconclusive: 39.8 µM [cytotoxic, partial curve, poor fit]",–
CCn1cc2nc(SCc3ccccc3Cl)n(Cc3ccc(OC)cc3)c(=O)c2n1,"inconclusive: 39.8 µM [cytotoxic, single point]",–
Cc1noc(C)c1S(=O)(=O)N(CC(=O)Nc1ccc(F)cc1F)c1ccc(C(C)C)cc1,inactive,–
O=C(O)c1ccccc1C(=O)Nc1ccc(Br)c2cccnc12,"inconclusive: 3.16 µM [cytotoxic, single point]",–
COC(=O)c1ccccc1NS(=O)(=O)c1cc2c(cc1C)N(C)CCO2,inactive,–
CSc1ccccc1NC(=O)CCS(=O)(=O)c1nc(-c2ccc3c(c2)OCO3)cc(C(F)(F)F)n1,"inconclusive: 39.8 µM [cytotoxic, partial curve, poor fit]",–
Cc1ccc(S(=O)(=O)C(CNS(=O)(=O)c2cc(F)ccc2F)c2cccs2)cc1 (configuration not stated),active: 20 µM,–
Cc1ccccc1-c1noc(-c2ccccc2OCC(=O)Nc2cccc([N+](=O)[O-])c2)n1,inactive,–
CC(C)(C)OC(=O)N1CCC(c2c(C(=O)NCCN3CCC(Cc4ccccc4)CC3)cnn2-c2cccc(Cl)c2)CC1,active: 25.1 µM,–
CCOC(=O)C1CCN(C(=O)c2cc3ccc4cccnc4c3[nH]2)CC1,inactive,–
O=C(NCCCN1CCN(c2ccccc2)CC1)c1nnc(Cc2c(F)cccc2Cl)o1,"inconclusive: 22.4 µM [cytotoxic, single point]",–
O=C(Nc1ccc2c(c1)CCCN2C(=O)c1cccs1)c1cccc(C(F)(F)F)c1,"inconclusive: 35.5 µM [cytotoxic, single point]",–
CCOC(=O)c1[nH]c2ccccc2c1NC(=O)c1ccccc1OCC,"inconclusive: 7.08 µM [rising, single point]",–
CCc1ccc(NC(=O)c2cc(S(=O)(=O)NC3CCCC3)ccc2F)cc1,"inconclusive: 39.8 µM [cytotoxic, single point]",–
COC(=O)c1cc(NC(=O)c2oc(=O)c3ccccc3c2-c2ccccc2)cc(C(=O)OC)c1,"inconclusive: 3.55 µM [rising, full curve, poor fit]",–
CCOc1ccc(NC(=O)c2oc3ccccc3c2NC(=O)Cc2ccc(F)cc2)cc1,"inconclusive: 17.8 µM [rising, partial curve, poor fit]",–

SMILES,Potency,"activity change, negative = cytotoxicity"
O=C(Cn1ncc2c3ccccc3n(Cc3ccc(Cl)cc3)c2c1=O)N1CCCCCC1,"inconclusive: 39.8 µM [cytotoxic, partial curve, poor fit]",–
CCC(Sc1nc2ccccc2c2nc(CCc3c(C)n[nH]c3C)nn12)C(=O)Nc1ccc(F)cc1 (configuration not stated),"inconclusive: 2.51 µM [cytotoxic, single point]",–
COc1ccccc1CNS(=O)(=O)c1ccc2[nH]c3c(c2c1)CCCCC3,"inconclusive: 39.8 µM [cytotoxic, single point]",–
CSc1ccc(CNC(=O)CCn2ccc3cc(S(=O)(=O)N4CCC(C)CC4)ccc32)cc1,"inconclusive: 39.8 µM [cytotoxic, single point]",–
CCOC(=O)c1c(C)[nH]c(C)c1S(=O)(=O)N1CCC(C(=O)N2CCN(c3cccc(C)c3)C(C)C2)CC1 (configuration not stated),"inconclusive: 28.2 µM [cytotoxic, single point]",–
O=C(Nc1ccc(C(F)(F)F)cc1)c1cc(S(=O)(=O)NC2CCCCCC2)ccc1F,"inconclusive: 39.8 µM [cytotoxic, single point]",–
Cc1ccc(C(=O)Nc2ccc3nc(SCC(=O)N4CCc5ccccc54)sc3c2)cc1,inactive,–
COCCn1c(CNC(=O)c2cccc(N(C)C)c2)nc2cccnc21,inactive,–
CCOc1ccc(OCC)c(NC(=O)c2nnn(Cc3cc(Br)ccc3OC)c2N)c1,inactive,–
O=C(c1ccc2c(c1)N(Cc1ccc(Cl)cc1)C(=O)c1ccccc1S2(=O)=O)N1CCCCCC1,"inconclusive: 3.98 µM [rising, single point]",–
Cc1cccc(C)c1Nc1c(-c2ccccc2Cl)nc2cnccn12,"inconclusive: 25.1 µM [cytotoxic, single point]",–
Cc1ccc(-c2onc(C)c2C)cc1S(=O)(=O)NCc1cccs1,"inconclusive: 39.8 µM [cytotoxic, single point]",–
Cc1ccc(N2C(=O)C(CC(=O)Nc3ccc(F)cc3)N(CCC3=CCCCC3)C2=O)cc1 (configuration not stated),"inconclusive: 22.4 µM [cytotoxic, partial curve, poor fit]",–
COCCCNC(=O)c1ccc(CSc2nc3cccnc3n2Cc2ccc(OC)cc2)cc1,inactive,–
COc1ccc(NC(=O)C2CCCN(S(=O)(=O)c3ccc(F)cc3)C2)cc1 (configuration not stated),inactive,–
CC(C)(C)c1ccc(C(=O)Nc2ccc(-c3nc4ccccc4o3)c(O)c2)cc1,"inconclusive: 2.24 µM [cytotoxic, full curve, poor fit]",–
Cc1cccc(NC(=O)c2sc3ncnc(N(C)C4CCCCC4)c3c2C)c1C,inactive,–
COc1cc(-c2nc(SCC(=O)Nc3ccc4c(c3)OCO4)c(-c3ccccc3)[nH]2)cc(OC)c1OC,"inconclusive: 39.8 µM [cytotoxic, single point]",–
COc1ccc(OCCn2c(NC(=O)c3ccc(OC)cc3)nc3ccccc32)cc1,"inconclusive: 25.1 µM [cytotoxic, single point]",–
COc1ccccc1CN1CCC(CNC(=O)c2cnn(-c3ccccc3Cl)c2C2CCN(C(=O)OC(C)(C)C)CC2)CC1,"inconclusive: 39.8 µM [cytotoxic, single point]",–
CC(C)CC(=O)NCC(c1ccc2c(c1)OCO2)N1CCN(c2ccccc2)CC1 (configuration not stated),–,inconclusive: -32.9% [cytotoxic]

SMILES,Potency,"activity change, negative = cytotoxicity"
CC(=O)Nc1ccc(NC(=O)CN(C)S(=O)(=O)c2ccc3c(c2)CCCC(=O)N3)cc1,inactive,–
COc1ccc(CC(=O)NCC(c2cccs2)S(=O)(=O)c2ccc(F)c(C)c2)cc1 (configuration not stated),inactive,–
CCCCN(C(=O)C1CCC(CNS(=O)(=O)c2cccc3nsnc23)CC1)c1ccccc1 (configuration not stated),"inconclusive: 39.8 µM [cytotoxic, single point]",–
Cc1cc2n(n1)CCC(=O)N2Cc1ccc(C(=O)Nc2cc(Cl)ccc2C)cc1,inactive,–
COc1ccccc1C(=O)Nc1nc2n(n1)C(c1ccc(F)cc1)C=C(c1ccc(Cl)cc1)N2 (configuration not stated),"inconclusive: 31.6 µM [cytotoxic, partial curve, poor fit]",–
Cc1ccccc1CSc1ncc(Cl)c(C(=O)Nc2nc3ccc(F)cc3s2)n1,inactive,–
CCc1ccc(CNC(=O)C2CCCN(c3nnc(C)c4c(C)n(-c5ccccc5)nc34)C2)cc1 (configuration not stated),"inconclusive: 39.8 µM [cytotoxic, single point]",–
CCc1ccccc1N(C)C(=O)C1CCCN(c2ncnc3c2nc2n3CCCCC2)C1 (configuration not stated),"inconclusive: 35.5 µM [cytotoxic, single point]",–
O=C(CSc1nc(-c2cccc(F)c2)[nH]c1-c1ccccc1)Nc1ccc2c(c1)OCO2,"inconclusive: 39.8 µM [cytotoxic, single point]",–
CCC(=O)N1CCc2cc(S(=O)(=O)NCCC(=O)Nc3ccc(N(CC)CC)cc3C)ccc21,"inconclusive: 31.6 µM [cytotoxic, single point]",–
COc1cc(NC(=O)CSc2c3c(nc4ccccc24)CCC3)cc(OC)c1OC,inactive,–
Cc1ccc(-c2nn3c(C)nnc3c3ccccc23)cc1S(=O)(=O)NCC(C)O (configuration not stated),inactive,–
Cc1ccccc1OCc1ccc(-c2nc(C#N)c(N3CCN(c4cccc(Cl)c4)CC3)o2)o1,"inconclusive: 10 µM [rising, partial curve, poor fit]",–
COc1ccccc1N1CCN(C(=O)C2CCCN(S(=O)(=O)c3ccc4c(c3)CCCN4C(C)=O)C2)CC1 (configuration not stated),"inconclusive: 25.1 µM [cytotoxic, single point]",–
COc1ccc2[nH]cc(CCN=C(NC(=O)c3ccccc3OC)Nc3nc(C)cc(C)n3)c2c1,"inconclusive: 31.6 µM [cytotoxic, single point]",–
O=C(NCCSc1c[nH]c2ccccc12)c1ccccc1Cl,"inconclusive: 2 µM [cytotoxic, full curve, poor fit]",–
CCc1c(C)sc2c1CCN(Cc1ccccc1F)C2c1ccccc1 (configuration not stated),active: 8.91 µM,–
COc1ccc(S(=O)(=O)N2CCN(c3ccccc3OC)CC2)cc1,"inconclusive: 3.98 µM [cytotoxic, full curve, poor fit]",–
CCc1ccc(CNC(=O)c2ccc(NC(=O)N3CCCCc4ccccc43)cc2)cc1,"inconclusive: 28.2 µM [cytotoxic, single point]",–
COc1ccc(N2CCN(C(=O)c3cn(CC(C)C)c(=O)c4c3c3ccccc3n4C)CC2)cc1,"inconclusive: 28.2 µM [cytotoxic, single point]",–
